PubChem BioAssay AID488969 (Vanderbilt High Throughput Screening Facility, 2010)
Whole data set: some 110,000 compounds, median “z-score” near -0.1, cut for the highest 2% near 2. The list shows a part of the results. The source made the active and inactive calls.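 Rule for the calls: active = z-score in the third read window above 3 or below -3; inactive = the rest.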

Molecular target: Metabotropic glutamate receptor 8 (Rattus norvegicus) (UniProt P70579)
Assay: mGluR8 Gi/Go-coupled signaling modulation – cell-based, rat, thallium flux, HTS, primary screen (AID 488969)
Conditions: HEK293 rat mGluR8, GIRK (G protein-gated inwardly rectifying potassium channel) thallium flux, FluoZin2; at 10 µM; stronger effect = higher value; submaximal glutamate (EC20) added with thallium

Sequence of UniProt P70579 (P70579 whole entry, looked up): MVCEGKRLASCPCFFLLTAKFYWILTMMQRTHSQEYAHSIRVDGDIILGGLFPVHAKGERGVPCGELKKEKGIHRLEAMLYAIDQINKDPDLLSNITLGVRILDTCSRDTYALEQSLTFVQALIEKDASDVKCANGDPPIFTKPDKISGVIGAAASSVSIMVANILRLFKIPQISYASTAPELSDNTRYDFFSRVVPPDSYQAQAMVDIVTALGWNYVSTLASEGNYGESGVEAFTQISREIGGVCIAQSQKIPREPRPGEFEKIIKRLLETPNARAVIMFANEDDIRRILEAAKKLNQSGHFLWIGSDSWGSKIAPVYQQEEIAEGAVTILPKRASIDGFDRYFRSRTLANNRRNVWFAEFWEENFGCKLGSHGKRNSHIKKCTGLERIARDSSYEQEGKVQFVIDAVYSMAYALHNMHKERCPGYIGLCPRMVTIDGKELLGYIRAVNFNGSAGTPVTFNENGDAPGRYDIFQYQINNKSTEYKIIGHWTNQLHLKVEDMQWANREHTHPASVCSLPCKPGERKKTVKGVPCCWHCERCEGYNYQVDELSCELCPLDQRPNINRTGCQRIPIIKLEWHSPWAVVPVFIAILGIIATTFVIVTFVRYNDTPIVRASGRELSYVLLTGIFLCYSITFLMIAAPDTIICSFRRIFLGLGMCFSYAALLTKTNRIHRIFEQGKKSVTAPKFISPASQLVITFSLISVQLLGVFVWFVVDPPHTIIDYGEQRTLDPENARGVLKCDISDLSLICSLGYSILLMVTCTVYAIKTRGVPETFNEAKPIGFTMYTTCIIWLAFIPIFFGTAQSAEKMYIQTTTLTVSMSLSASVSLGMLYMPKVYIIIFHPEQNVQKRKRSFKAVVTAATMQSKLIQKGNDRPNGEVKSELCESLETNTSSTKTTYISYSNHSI

Compared with `CC1N(C)c2cccc3cccc(c23)N1C`, `CC(=O)N1C(=O)c2cccc3cccc(c23)C(=O)N1C(C)=O` is higher in z-score: -0.243 for the first, 0.73 for the second.

First: CC(C)Cn1c(=O)c2ccccc2n2c(SCC(=O)N3c4ccccc4CC3C)nnc12 (stereo unspecified)
Second: Cn1c(C(=O)NCc2ccccn2)cc2c(=O)n(C)c3ccccc3c21
The z-score of the first is lower: -0.53 for the first, 0.138 for the second.

First: Cc1ccc(NC(=O)C2(c3ccccc3)CC2(Cl)Cl)cc1C (stereo unspecified)
Second: Cc1ccc(NC(=O)CSc2ncn(-c3ccccc3)n2)cc1C
The z-score of the first is higher: -0.293 for the first, -0.951 for the second.

Compared with `Cc1ccccc1CCN(C(=O)Cn1nnc2ccccc21)C(C(=O)NCC1CCCO1)c1nc2ccccc2n1C` (stereo unspecified), `CCN(CCNC(=O)C1CCN(Cc2nc(-c3cccc(Cl)c3)oc2C)CC1)c1ccccc1` is higher in z-score: -0.147 for the first, 1.25 for the second.

Going from `CCOC(=O)/C(C(N)=NCC(C)C)=C(/O)c1ccccc1` to `CC(C)CC(C(=O)O)N(Cc1ccccc1)Cc1ccccc1` (stereo unspecified), the z-score rises from -0.583 to -0.132.

Going from `Nc1nc2n(n1)C(c1cccc(Br)c1)CC(c1ccccc1)N2` (stereo unspecified) to `COc1ccc(Br)cc1-c1noc(-c2ccccc2)n1`, the z-score falls from 0.751 to -0.0746.

Compared with `O=C(NCc1ccccn1)c1cn(CCc2ccccc2)nn1`, `c1ccc(-n2cnc3cc(NCc4ccccn4)ccc32)cc1` is higher in z-score: -0.818 for the first, 0.062 for the second.

Compared with `COc1ccc(Cl)cc1NC(=O)CNc1ccc(F)cc1C`, `COc1ccc(OC)c(NC(=O)CSc2nnc(Cc3cccn3C)n2-c2ccc(F)cc2)c1` is higher in z-score: -0.449 for the first, -0.326 for the second.

Going from `O=C(N/N=C/c1ccc(F)cc1)c1cc(-c2ccco2)nc2ccccc12` to `O=C(COC(=O)c1cc(-c2ccc(Cl)s2)nc2ccccc12)NCc1ccco1`, the z-score rises from -0.0949 to -0.0527.

Compared with `O=C(Nc1cccc(C(F)(F)F)c1)c1cc(-c2ccc(F)cc2)on1`, `O=C(Nc1ccncc1)c1ccc(F)cc1` is higher in z-score: -0.388 for the first, -0.0387 for the second.

Compared with `COc1ccc(CN2CCN(C(=O)CC(C)C)CC2)c2ccccc12`, `CCOC(=O)N1CCN(CC(O)COc2ccccc2C(C)C)CC1` (stereo unspecified) is lower in z-score: 0.562 for the first, 0.377 for the second.

First: COC(=O)Nc1cccn(Cc2c(Cl)cccc2Cl)c1=O
Second: COCCNCC(=O)Nc1ccccc1Sc1ccccc1
The z-score of the first is higher: -0.0369 for the first, -0.304 for the second.

Going from `COc1ccc2[nH]cc(C(=O)CN(C)CCc3ccc(OC)c(OC)c3)c2c1` to `COc1cccc(NC(=O)c2cccc(OC)c2OC)c1`, the z-score falls from 0.489 to -0.545.

Compared with `CCCCOc1ccc(Br)cc1CSC(=N)N`, `CCCCNC(=O)c1cccc(C(=O)NCCCC)c1` is lower in z-score: 0.623 for the first, -0.0718 for the second.

Compared with `CC(C)(C)NS(=O)(=O)c1ccc(CCC(=O)NCc2ccc3c(c2)OCO3)cc1`, `O=C(COC(=O)c1ccc2c(c1)OCO2)NCc1ccc2c(c1)OCO2` is lower in z-score: 0.241 for the first, -0.128 for the second.

Going from `COc1ccc(-c2nnc(-c3ccc(OCC(C)C)cc3)o2)cc1` to `COc1ccc(-c2cc(=O)oc3c(C)c(OC(=O)c4cccs4)ccc23)cc1`, the z-score falls from 0.807 to 0.444.

Compared with `O=[N+]([O-])c1ccc(Cl)cc1NCCCN1CCOCC1`, `O=[N+]([O-])c1ccc(NCCCNS(=O)(=O)c2ccc(Cl)cc2)c(Cl)c1` is higher in z-score: -0.718 for the first, -0.0607 for the second.

Going from `COc1cc(-c2cc(C(=O)NN3CCN(C)CC3)c3ccccc3n2)cc(OC)c1OC` to `COc1ccccc1C(=O)Nn1c(-c2cccs2)nc2ccccc2c1=O`, the z-score rises from -0.264 to 0.229.

First: CC(C)CCNC(=O)C1CCC(=O)N1C(C)C (stereo unspecified)
Second: CCN(CC)CCNC(=O)c1cc2c(=O)n(C)c3ccccc3c2n1C
The z-score of the first is lower: -0.118 for the first, 1.25 for the second.

Going from `O=c1[nH]c(CN2CCN(CCO)CC2)nc2ccccc12` to `O=C(CSc1ncccc1-c1nc2ccccc2[nH]1)N1CCCCC1`, the z-score rises from 0.00285 to 0.119.

Compared with `CCOC(=O)c1nnc(-c2ccccc2)nc1Sc1ccccc1Cl`, `O=C(CSc1nc(O)c(Cc2ccccc2)c(=O)[nH]1)Nc1ccccc1` is lower in z-score: -0.115 for the first, -0.392 for the second.

Going from `O=C(c1cccc(S(=O)(=O)N2CCOCC2)c1)N1CCCc2ccccc21` to `CN(C)C(=O)C1(c2ccccc2)CCN(S(=O)(=O)c2ccccc2)CC1`, the z-score rises from -0.828 to 0.0763.

Compared with `CSc1nnc(-c2ccccc2N=Cc2c(C)[nH]n(-c3ccc4ccccc4c3)c2=O)c(=O)[nH]1`, `COc1ccc(NCC(=O)N/N=C/c2c(C)nn(Cc3ccccc3)c2Cl)cc1` is lower in z-score: 0.358 for the first, -0.0241 for the second.

Compared with `CC1CCc2c(C(=O)Nc3ccc(OC(F)(F)F)cc3)csc2C1` (stereo unspecified), `O=C(O)COc1ccc(NC(=O)c2ccco2)cc1` is higher in z-score: -0.225 for the first, 0.0389 for the second.

First: NNC(=O)CNC(=O)c1cccc(Br)c1
Second: CC(=O)c1c(C)[nH]c(C(=O)NCCc2ccccc2)c1C
The z-score of the first is higher: 0.117 for the first, -1.08 for the second.

First: CCN(C(=O)CSc1ncccc1C(=O)Oc1cccc([N+](=O)[O-])c1)c1cccc(C)c1
Second: CCOc1cccc(OCCOCCn2cnc3ccccc3c2=O)c1
The z-score of the first is lower: -0.431 for the first, 0.0931 for the second.

Compared with `O=C(O)C1CC=CCC1C(=O)NC12CC3CC(CC(C3)C1)C2` (stereo unspecified), `C/C(=C\c1ccccc1)CN1CCC(C(=O)N2CCCCC2)CC1` is lower in z-score: 0.0352 for the first, -0.00947 for the second.

Going from `NC(=O)c1ccc(NC(=O)COC(=O)c2c3c(nc4ccccc24)/C(=C\c2cccs2)CCC3)cc1` to `O=C(N/N=C/c1cn(-c2cccs2)nc1-c1ccccc1)c1ccccc1Br`, the z-score rises from -0.38 to -0.355.

Compared with `Cc1cc(C)n(-c2nc3sc4c(c3c3nnc(SC(C)C)n23)CC(C)(C)OC4)n1`, `COc1nc(C)nc2c1sc1nc3c(cc12)COC(C)(C)C3` is higher in z-score: -1.58 for the first, 1.74 for the second.

First: COC(=O)C(C#N)C(c1cccnc1)c1c(C)[nH][nH]c1=O (stereo unspecified)
Second: CCOCc1nnc(NC(=O)CSc2ccc(C)cc2)s1
The z-score of the first is lower: 0.0437 for the first, 0.219 for the second.

Compared with `O=C(O)CCCCCN1C(=O)/C(=C/c2ccncc2)SC1=S`, `COC(=O)N(C)CCCC1(C)C(=O)N(C)c2ccc(O)cc21` (stereo unspecified) is higher in z-score: -0.0629 for the first, 0.151 for the second.

Going from `CC(=O)N1CCN(c2ccc(NCc3ccc4c(c3)OCO4)cc2)CC1` to `O=C(NCc1ccc2c(c1)OCO2)C1CCCN1C(=O)Nc1ccccc1` (stereo unspecified), the z-score rises from -0.235 to 0.00954.

Compared with `CN1CCc2c(c3c(n2C)CCN(C)[C@H]3c2ccccc2F)[C@@H]1c1ccccc1F`, `O=C(CSc1nnc(-c2cccs2)n1-c1ccccc1)N1CCOCC1` is lower in z-score: -0.147 for the first, -0.174 for the second.

First: Cc1ccc(-n2c(-c3ccncc3)nnc2-c2cccs2)cc1
Second: Cc1ccc(N2C(=O)CSC2c2c(F)cccc2Cl)cc1 (stereo unspecified)
The z-score of the first is lower: -0.207 for the first, 0.0105 for the second.

Compared with `CC(NC(=O)CCSc1nc(-c2ccc3c(c2)OCO3)cc(C(F)(F)F)n1)c1ccccc1` (stereo unspecified), `COCC(C)NC(=O)CCSc1nc(-c2ccc(OC)cc2)cc(C(F)(F)F)n1` (stereo unspecified) is higher in z-score: -0.673 for the first, -0.288 for the second.

First: CN(C(=O)COC(=O)c1cc(Br)c(Br)s1)C1CCS(=O)(=O)C1 (stereo unspecified)
Second: CCOC(=O)c1c(NC(=O)C2CCCO2)sc(C(N)=O)c1C (stereo unspecified)
The z-score of the first is lower: -0.419 for the first, -0.0328 for the second.

First: O=C(c1cnc2n(c1=O)CCS2)N1CCN(c2ccccc2F)CC1
Second: CCN1CCN(C(=O)c2cnn3c(C(F)F)cc(-c4ccc(C)cc4)nc23)CC1
The z-score of the first is higher: -0.0161 for the first, -0.204 for the second.

Going from `Cc1cc(=O)[nH]c(SC/C=C/c2ccccc2)n1` to `Cc1cc(-n2c(C)cc(C(=O)CSc3ncnc4ccccc34)c2C)no1`, the z-score rises from -0.481 to 0.406.

First: CSc1nc2sc3c(c2c2nnnn12)CCCC3
Second: CCOC(=O)CCCSc1nc2sc3c(c2c(=O)[nH]1)CCC3
The z-score of the first is higher: 0.38 for the first, -0.174 for the second.

First: CCOc1ccc(N2C(=O)CC(Sc3nc4ccc(OCC)cc4s3)C2=O)cc1 (stereo unspecified)
Second: O=C(CSc1nc2ccccc2s1)Nc1ccc(N2CCOCC2)c(Cl)c1
The z-score of the first is lower: -0.136 for the first, 0.284 for the second.

First: Cc1noc2ncnc(Sc3ccc(Cl)cc3)c12
Second: COc1ccc(-c2nc(-c3ccc(Br)o3)no2)cc1OC
The z-score of the first is lower: 0.302 for the first, 1.2 for the second.

First: COc1c([N+](=O)[O-])c(=O)oc2ccccc12
Second: COc1cc(/C=C/c2c([N+](=O)[O-])c(=O)n(C)c(=O)n2C)cc(OC)c1OC
The z-score of the first is lower: -0.321 for the first, -0.109 for the second.

Compared with `O=C(COC(=O)[C@@H]1CCCN1S(=O)(=O)c1ccc(Cl)cc1)NCC(F)(F)F`, `O=C(COC(=O)CCS(=O)(=O)c1ccc(Cl)cc1)Nc1ncc(Cl)cc1Cl` is lower in z-score: -0.281 for the first, -0.291 for the second.

First: CS(=O)(=O)N(CC(=O)N1CCCC1)c1ccc(OCc2ccccc2)cc1
Second: O=C(CS(=O)(=O)c1cn(Cc2ccc(Cl)cc2)c2ccccc12)N1CCCC1
The z-score of the first is higher: 0.216 for the first, -0.128 for the second.

Going from `O=S(=O)(Nc1cccc(-c2cn3cccnc3n2)c1)c1ccccc1` to `Cc1ccnc(NCn2nnc3ccccc32)c1`, the z-score rises from -0.202 to 0.0468.

First: C=C(C)c1cccc(C(C)(C)NC(=O)N2CCCC2)c1
Second: O=C(NC(=S)Nc1ccc(N2CCCCC2)cc1)c1ccco1
The z-score of the first is higher: -0.0205 for the first, -1.53 for the second.

First: O=C(Nc1c(F)cc(F)cc1Br)c1cc2nc(C(F)F)cc(C(F)F)n2n1
Second: Cc1ccc(NC(=O)c2sc(Cl)nc2C)c(C)c1
The z-score of the first is lower: -0.371 for the first, -0.333 for the second.

Compared with `C#CCN1C(=O)C(O)(CC(=O)c2ccc3c(c2)OCCO3)c2ccccc21` (stereo unspecified), `CC1=C(C(=O)Nc2ccccc2)C(c2ccc(N(C)C)cc2)NC(=O)N1` (stereo unspecified) is higher in z-score: -0.134 for the first, 1.37 for the second.

Compared with `O=c1c2cc3c(cc2[nH]c(=S)n1CCN1CCOCC1)OCO3`, `Cn1c(=O)c2c(nc(N3CCCCC3)n2CCSc2nc3ccccc3o2)n(C)c1=O` is higher in z-score: -0.119 for the first, 0.0376 for the second.

Going from `COc1ccc(Cl)cc1-c1n[nH]c(=S)o1` to `COc1ccc(C2N=C(N)N=C(N)N2c2ccccc2)cc1OC` (stereo unspecified), the z-score rises from 0.331 to 0.936.

Compared with `CC1(C(=O)O)COC(c2ccc([N+](=O)[O-])cc2)OC1` (stereo unspecified), `O=C1CN(C(=O)c2ccco2)C(c2ccc(F)cc2)c2cc(Cl)ccc2N1` (stereo unspecified) is lower in z-score: -0.377 for the first, -0.575 for the second.

Going from `C=CCc1cccc(/C=N/NC(=O)CCCNc2ccc(C)cc2)c1O` to `C=CCN(CC=C)S(=O)(=O)c1ccc(NC(=S)NC(=O)/C=C/c2ccccc2)cc1`, the z-score rises from -0.144 to 0.472.

First: C=CCNc1nc(NC(C)(C)CO)nc(OC)n1
Second: Cc1noc(C)c1COC(=O)COc1cccc2c1OC(C)(C)C2
The z-score of the first is higher: -0.0508 for the first, -0.442 for the second.

Compared with `c1ccc(SCCCCNC2CCCC2)cc1`, `O=C(CSc1nnnn1C1CCCC1)NCc1ccccc1` is lower in z-score: 0.687 for the first, -0.858 for the second.

Compared with `CC1=CC=CC2=NC(=O)CC(C)(C(=O)N(CC(=O)NC3CCCC3)c3ccccc3C)N12` (stereo unspecified), `Cn1c(=O)c2c(nc(SCC(=O)OCc3ccccc3)n2C)n(C)c1=O` is higher in z-score: 0.0485 for the first, 0.701 for the second.

For `COc1ccc2occ(C(=O)c3ccc(N=C(C)N(C)C)cc3)c2c1`, the z-score was active: 3.46.
